# Some of the results follow.
# B1: SIGNR8 (Mus musculus) (protein)
# chain: MAGEPEFHQSKNHEEEVTSGEQGFAEHDPEGLICSSKSLQGHLTQVPWLLLLLISLGLFLLMLATLVQVSRIRAYSQGQTQDQQGSSSLDKVAVPREQTHSGLEQIQQIQQQLTQFNASLAGLCRPCPWDWELFQGSCYLFSRTLGSWETSASSCEDLGAHLVIVNSVSEQRFMKYWNVRKNQRSWIGLSDHIHEGSWQWVDGSALKFSFWKEGEPNNDGDEDCVELFMDDWNDNKCTEQNFWVCEQPSAPCPHH
# Columns and labels:
# Experiment in all cases: glycan array binding signal (z-score within array); higher = stronger binding
# Conditions in all cases: glycan notation: IUPAC condensed, linker removed
# [1] = biological target: GlcNAc(b1-4)GlcNAc(b1-4)GlcNAc(b1-4)GlcNAc(b1-4)GlcNAc
# Outline: (§1)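 The binding signal is a Z-score computed within each array and averaged over linkers. Arrays of the same protein sequence at different concentrations or buffers were also averaged together. Data originate from 3228 arrays in the Consortium for Functional Glycomics database, kept only where the protein sequence was available.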
# [2] = biological target: GlcNAc(b1-4)GlcNAc(b1-4)GlcNAc(b1-4)GlcNAc(b1-4)GlcNAc(b1-4)GlcNAc
# Outline: as §1
# [3] = biological target: GlcNAc(b1-4)[GlcNAc(b1-6)]GalNAc
# Outline: as §1
# [4] = biological target: GlcNAc(b1-6)Gal(b1-4)GlcNAc
# Outline: as §1
# GlcNAc(b1-6)GalNAc = biological target: GlcNAc(b1-6)GalNAc
# Outline: as §1
# Kdn(a2-3)Gal(b1-3)GlcNAc = biological target: Kdn(a2-3)Gal(b1-3)GlcNAc
# Outline: as §1
# Kdn(a2-3)Gal(b1-4)GlcNAc = biological target: Kdn(a2-3)Gal(b1-4)GlcNAc
# Outline: as §1
# [5] = biological target: Man(a1-2)Man(a1-2)Man(a1-3)Man
# Outline: as §1
# [6] = biological target: Man(a1-2)Man(a1-2)Man(a1-6)[Man(a1-3)]Man
# Outline: as §1
# Man(a1-2)Man(a1-3)Man = biological target: Man(a1-2)Man(a1-3)Man
# Outline: as §1
# [7] = biological target: Man(a1-2)Man(a1-3)[Man(a1-2)Man(a1-6)]Man
# Outline: as §1
# [8] = biological target: Man(a1-2)Man(a1-3)[Man(a1-2)Man(a1-6)]Man(a1-6)[Man(a1-2)Man(a1-2)Man(a1-3)]Man(b1-4)GlcNAc(b1-4)GlcNAc
# Outline: as §1
# [9] = biological target: Man(a1-2)Man(a1-3)[Man(a1-6)]Man(a1-6)[Man(a1-2)Man(a1-3)]Man(b1-4)GlcNAc(b1-4)GlcNAc
# Outline: as §1
# [10] = biological target: Man(a1-2)Man(a1-6)[Man(a1-3)]Man(a1-6)[Man(a1-2)Man(a1-2)Man(a1-3)]Man(b1-4)GlcNAc(b1-4)GlcNAc
# Outline: as §1
# Man(a1-3)[Man(a1-6)]Man = biological target: Man(a1-3)[Man(a1-6)]Man
# Outline: as §1
# [11] = biological target: Man(a1-3)[Man(a1-6)]Man(a1-6)[Man(a1-2)Man(a1-3)]Man(b1-4)GlcNAc(b1-4)GlcNAc
# Outline: as §1
# [12] = biological target: Man(a1-3)[Man(a1-6)]Man(a1-6)[Man(a1-3)]Man(b1-4)GlcNAc(b1-4)GlcNAc
# Outline: as §1
# [13] = biological target: Man(a1-3)[Man(a1-6)]Man(b1-4)GlcNAc(b1-4)GlcNAc
# Outline: as §1
# Man(b1-4)GlcNAc = biological target: Man(b1-4)GlcNAc
# Outline: as §1
# Neu5Ac(a2-3)Gal = biological target: Neu5Ac(a2-3)Gal
# Outline: as §1
# [14] = biological target: Neu5Ac(a2-3)Gal(b1-3)GalNAc
# Outline: as §1
# [15] = biological target: Neu5Ac(a2-3)Gal(b1-3)GalNAc(b1-3)Gal(a1-4)Gal(b1-4)Glc
# Outline: as §1
# [16] = biological target: Neu5Ac(a2-3)Gal(b1-3)GalNAc(b1-3)Gal(b1-4)GlcNAc
# Outline: as §1
# [17] = biological target: Neu5Ac(a2-3)Gal(b1-3)GalNAc(b1-4)[Neu5Ac(a2-3)]Gal(b1-4)Glc
# Outline: as §1
# [18] = biological target: Neu5Ac(a2-3)Gal(b1-3)GalNAc6S
# Outline: as §1
# [19] = biological target: Neu5Ac(a2-3)Gal(b1-3)GlcNAc
# Outline: as §1
# [20] = biological target: Neu5Ac(a2-3)Gal(b1-3)GlcNAc6S
# Outline: as §1
# [21] = biological target: Neu5Ac(a2-3)Gal(b1-3)[Fuc(a1-4)]GlcNAc
# Outline: as §1
# [22] = biological target: Neu5Ac(a2-3)Gal(b1-3)[Fuc(a1-4)]GlcNAc(b1-3)Gal(b1-4)[Fuc(a1-3)]GlcNAc
# Outline: as §1
# [23] = biological target: Neu5Ac(a2-3)Gal(b1-3)[Neu5Ac(a2-3)Gal(b1-4)]GlcNAc
# Outline: as §1
# [24] = biological target: Neu5Ac(a2-3)Gal(b1-3)[Neu5Ac(a2-6)]GalNAc
# Outline: as §1
# Neu5Ac(a2-3)Gal(b1-4)Glc = biological target: Neu5Ac(a2-3)Gal(b1-4)Glc
# Outline: as §1
# [25] = biological target: Neu5Ac(a2-3)Gal(b1-4)GlcNAc
# Outline: as §1
# [26] = biological target: Neu5Ac(a2-3)Gal(b1-4)GlcNAc(b1-2)Man(a1-3)[Neu5Ac(a2-3)Gal(b1-4)GlcNAc(b1-2)Man(a1-6)]Man(b1-4)GlcNAc(b1-4)GlcNAc
# Outline: as §1
# [27] = biological target: Neu5Ac(a2-3)Gal(b1-4)GlcNAc(b1-3)Gal(b1-4)GlcNAc
# Outline: as §1
# [28] = biological target: Neu5Ac(a2-3)Gal(b1-4)GlcNAc(b1-3)Gal(b1-4)GlcNAc(b1-3)Gal(b1-4)GlcNAc
# Outline: as §1
# [29] = biological target: Neu5Ac(a2-3)Gal(b1-4)GlcNAc(b1-3)Gal(b1-4)[Fuc(a1-3)]GlcNAc
# Outline: as §1
binder,measurement,setting,value
B1,glycan array binding signal (z-score),[1],-0.407
same,glycan array binding signal (z-score),[2],-0.406
same,glycan array binding signal (z-score),[3],-0.395
same,glycan array binding signal (z-score),[4],-0.395
same,glycan array binding signal (z-score),GlcNAc(b1-6)GalNAc,-0.374
same,glycan array binding signal (z-score),Kdn(a2-3)Gal(b1-3)GlcNAc,-0.384
same,glycan array binding signal (z-score),Kdn(a2-3)Gal(b1-4)GlcNAc,-0.39
same,glycan array binding signal (z-score),[5],-0.4
same,glycan array binding signal (z-score),[6],-0.409
same,glycan array binding signal (z-score),Man(a1-2)Man(a1-3)Man,-0.374
same,glycan array binding signal (z-score),[7],-0.393
same,glycan array binding signal (z-score),[8],-0.335
same,glycan array binding signal (z-score),[9],-0.361
same,glycan array binding signal (z-score),[10],-0.394
same,glycan array binding signal (z-score),Man(a1-3)[Man(a1-6)]Man,-0.373
same,glycan array binding signal (z-score),[11],-0.395
same,glycan array binding signal (z-score),[12],-0.393
same,glycan array binding signal (z-score),[13],-0.39
same,glycan array binding signal (z-score),Man(b1-4)GlcNAc,-0.395
same,glycan array binding signal (z-score),Neu5Ac(a2-3)Gal,-0.389
same,glycan array binding signal (z-score),[14],-0.403
same,glycan array binding signal (z-score),[15],-0.377
same,glycan array binding signal (z-score),[16],-0.397
same,glycan array binding signal (z-score),[17],-0.398
same,glycan array binding signal (z-score),[18],-0.383
same,glycan array binding signal (z-score),[19],-0.384
same,glycan array binding signal (z-score),[20],-0.39
same,glycan array binding signal (z-score),[21],-0.394
same,glycan array binding signal (z-score),[22],-0.393
same,glycan array binding signal (z-score),[23],-0.398
same,glycan array binding signal (z-score),[24],-0.407
same,glycan array binding signal (z-score),Neu5Ac(a2-3)Gal(b1-4)Glc,-0.388
same,glycan array binding signal (z-score),[25],-0.404
same,glycan array binding signal (z-score),[26],-0.396
same,glycan array binding signal (z-score),[27],-0.407
same,glycan array binding signal (z-score),[28],-0.409
same,glycan array binding signal (z-score),[29],-0.404

# — the supplement of paper PMC8728848
